Assay results as given in paper PMC7819943, “Rice protein-binding microarrays: a tool to detect cis-acting elements near promoter regions in rice”.
This is one part of the list.

Molecular target: T1, OsWOX13 (Oryza sativa, UniProt Q5QMM3 1-267)
T1 sequence: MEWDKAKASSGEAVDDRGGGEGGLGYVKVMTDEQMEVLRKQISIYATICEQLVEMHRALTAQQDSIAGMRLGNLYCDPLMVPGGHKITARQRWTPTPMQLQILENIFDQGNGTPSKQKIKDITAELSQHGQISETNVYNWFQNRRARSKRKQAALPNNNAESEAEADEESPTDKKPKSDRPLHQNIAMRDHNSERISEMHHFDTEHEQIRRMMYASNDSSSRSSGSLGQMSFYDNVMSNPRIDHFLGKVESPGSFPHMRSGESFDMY
Test: protein-binding microarray (RPBM); PBS, 2% BSA, 51.3 ng/ul salmon testes DNA, 50 uM zinc acetate, 200 nM TF, 25 C, 1 h; high values mean tight binding
Conditions: protein: recombinant; tags: N-terminal polyhistidine and DsRed monomer fusion (pET32a); label: CyDye5-dUTP incorporated in the synthesized complementary strand; 3' TTTTT single-stranded linker to array surface; dsDNA, one strand shown
In short: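 Using Ni–NTA, transcription factors fused N-terminally to polyhistidine and DsRed were purified after expression in E. coli BL21-CodonPlus. These were incubated at 200 nM with a blocked, double-stranded custom Agilent array for 1 h at 25 °C in a buffer containing 50 µM zinc acetate, and the array was washed. The binding signal is per-feature fluorescence intensity (arbitrary units) on an Axon 4000B scanner.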

Sequence | binding signal
TACCATTGTCCATTGATTGAGGTGATCACTAGGCTGTCAACGGAGTCACCTAGTGCAG | 15700 fluorescence intensity (a.u.)
GACTAAATAGATGGTACACGGATGATAATGGAAGATCACACGGAGTCACCTAGTGCAG | 6660 fluorescence intensity (a.u.)
ACTAATAATGCAATCATGACAAACCAGCAAAGGAATAAACCGGAGTCACCTAGTGCAG | 4830 fluorescence intensity (a.u.)
CAATTAATGGATGCGTGATTCCTCGGTCCTGATGCAAGCACGGAGTCACCTAGTGCAG | 22700 fluorescence intensity (a.u.)
CAGGAAAATGATTGATATTAATACTAGCAAGAATGGCACGCGGAGTCACCTAGTGCAG | 50700 fluorescence intensity (a.u.)
AAAATATAATCAAAATAATTTACTTATCCATGTAATCATACGGAGTCACCTAGTGCAG | 3770 fluorescence intensity (a.u.)
GAATATTGATGCTCAATTTAATAGGTCCATGGAGGCTATTCGGAGTCACCTAGTGCAG | 7330 fluorescence intensity (a.u.)
TGCGACGCGATCAAATCAAATCATCCATCAAGCTGTAGCGCGGAGTCACCTAGTGCAG | 4030 fluorescence intensity (a.u.)
ACTCCAAAGTAAATGATTAGAGATCTAGGAAGCAGAGAATCGGAGTCACCTAGTGCAG | 4310 fluorescence intensity (a.u.)
ATTTTAATCATGATGGATACAATAATACAACGATCACTGTCGGAGTCACCTAGTGCAG | 10200 fluorescence intensity (a.u.)
TGTATGATGTGTTAGCGTTGATTTGGCACGCCAAGACGGACGGAGTCACCTAGTGCAG | 3540 fluorescence intensity (a.u.)
ACACGTAATGGATACTTTTGCCGAAGTGAACACATGCTTTCGGAGTCACCTAGTGCAG | 3140 fluorescence intensity (a.u.)
AATTACATATGTAATTTTAGTGTATTTACAATGTAAGTTCCGGAGTCACCTAGTGCAG | 3190 fluorescence intensity (a.u.)
ATTTGGTTAATTTTGCGCGTTCCTTCCTTCCTTCCTCAACCGGAGTCACCTAGTGCAG | 5630 fluorescence intensity (a.u.)
TTCAATCTAAATCATTCATCATTTCTCCATTATCTAACATCGGAGTCACCTAGTGCAG | 4680 fluorescence intensity (a.u.)
TAACTAATTAGTTAACTAATCGTCAATGTCACTAGCTTCTCGGAGTCACCTAGTGCAG | 45100 fluorescence intensity (a.u.)
CAAATCAAATTACCACATAAGCACCACGTCAATGCCACGTCGGAGTCACCTAGTGCAG | 6610 fluorescence intensity (a.u.)
TAACAAATTTAATTGTAAACATACCTATAATAATTTGAGTCGGAGTCACCTAGTGCAG | 21300 fluorescence intensity (a.u.)
ATCCTTGATTATCTCTACCTGAATAATACAGAGAGATACCCGGAGTCACCTAGTGCAG | 23000 fluorescence intensity (a.u.)
CAACAAATTGAAACCCACGCACTTCACTTCGCTCACCACACGGAGTCACCTAGTGCAG | 23200 fluorescence intensity (a.u.)
ATCCAATTATCCTGTCGGACCCCGTCCTCTGAAAACAAATCGGAGTCACCTAGTGCAG | 5120 fluorescence intensity (a.u.)

Sequence | binding signal
GCTATATTGGTTAACATCAGTGATTCCTGTGTCAATTAGCCGGAGTCACCTAGTGCAG | 4590 fluorescence intensity (a.u.)
CGCTTATGATAGGCATCACCGACATTCGCTACTTCACCGACGGAGTCACCTAGTGCAG | 4980 fluorescence intensity (a.u.)
TAATCTCTTGATGATTTGCTGTAACTACATTCCCTTGATACGGAGTCACCTAGTGCAG | 4820 fluorescence intensity (a.u.)
TAGTGATGTGCTGTTTACGGTAATTTCTTCAATCTCAAGACGGAGTCACCTAGTGCAG | 4160 fluorescence intensity (a.u.)
ATAAGAAATTAATCGTTCGCTAATAGCTTATTTTATTTTGCGGAGTCACCTAGTGCAG | 5040 fluorescence intensity (a.u.)
TTTATTCATAATTTACTTGTTTCCCGGAGAACTTTTACTTCGGAGTCACCTAGTGCAG | 3210 fluorescence intensity (a.u.)
CACCCATTATCCATGCTAATTAATTTGCATTTAGAGATCACGGAGTCACCTAGTGCAG | 18000 fluorescence intensity (a.u.)
GATGATCAGTTTGTCCAATCCCTATTCCATTTTGAACCTTCGGAGTCACCTAGTGCAG | 3320 fluorescence intensity (a.u.)
GAGATTGACGATCTAGGAATCAAATTTAGTTCAAGCCATCCGGAGTCACCTAGTGCAG | 40300 fluorescence intensity (a.u.)
TAAGCCTAATTAATTTGTCATTAGCAAATGTTTACTATAGCGGAGTCACCTAGTGCAG | 30300 fluorescence intensity (a.u.)
CGGTGGTTTTGATTTCTCCTGATTGCTGAGGCGATTGCCCCGGAGTCACCTAGTGCAG | 11300 fluorescence intensity (a.u.)
AAAGATTGGCACGCATTCTTATCTAGTCAGTTTCTCTTCACGGAGTCACCTAGTGCAG | 22500 fluorescence intensity (a.u.)
ATGGGAGGTGAGATTGGGATTGGGAAATAAATGAATGGCTCGGAGTCACCTAGTGCAG | 5250 fluorescence intensity (a.u.)
ACGAAACAAACTTCAGAGTTAATTTGCCCTTGGCACAGGCCGGAGTCACCTAGTGCAG | 3570 fluorescence intensity (a.u.)
TGAGGAATTATATTGTTAATTCCCCTCTCATTTGAGTGCTCGGAGTCACCTAGTGCAG | 4720 fluorescence intensity (a.u.)
CGATAATTTCATACATACAATTTTATGGTATGAAGACTGACGGAGTCACCTAGTGCAG | 8690 fluorescence intensity (a.u.)
GCTGGCTATATATGATTGGGGCACCTATAGTCTTATTATGCGGAGTCACCTAGTGCAG | 3330 fluorescence intensity (a.u.)
TACTAGATTGCTATATTATGGGACGGAGGGAGTAGAGGTTCGGAGTCACCTAGTGCAG | 19300 fluorescence intensity (a.u.)
CTGATGGATTAACATATGGAGTACTTGGTCACTAACCTTACGGAGTCACCTAGTGCAG | 3500 fluorescence intensity (a.u.)
CTGATGATGATGGCAGTGACGATTGCTAACACCCTGGTGCCGGAGTCACCTAGTGCAG | 17800 fluorescence intensity (a.u.)
AAGATCGATCAGGAAAATAATTGGAAAGTTCATTGCCACGCGGAGTCACCTAGTGCAG | 3550 fluorescence intensity (a.u.)
